In assay [1] the target is high-affinity hIL-2 receptor (IL-2Rαβγ) (human) (UniProt P01589). Kind of assay: cell-based or functional assay.
Assay [2] has as its target intermediate affinity hIL-2 receptor complex (IL-2Rβγ) (human) (UniProt P14784). Kind of assay: cell-based or functional assay.
Sequence of UniProt P14784 (P14784 27-551, chain 1 of 2): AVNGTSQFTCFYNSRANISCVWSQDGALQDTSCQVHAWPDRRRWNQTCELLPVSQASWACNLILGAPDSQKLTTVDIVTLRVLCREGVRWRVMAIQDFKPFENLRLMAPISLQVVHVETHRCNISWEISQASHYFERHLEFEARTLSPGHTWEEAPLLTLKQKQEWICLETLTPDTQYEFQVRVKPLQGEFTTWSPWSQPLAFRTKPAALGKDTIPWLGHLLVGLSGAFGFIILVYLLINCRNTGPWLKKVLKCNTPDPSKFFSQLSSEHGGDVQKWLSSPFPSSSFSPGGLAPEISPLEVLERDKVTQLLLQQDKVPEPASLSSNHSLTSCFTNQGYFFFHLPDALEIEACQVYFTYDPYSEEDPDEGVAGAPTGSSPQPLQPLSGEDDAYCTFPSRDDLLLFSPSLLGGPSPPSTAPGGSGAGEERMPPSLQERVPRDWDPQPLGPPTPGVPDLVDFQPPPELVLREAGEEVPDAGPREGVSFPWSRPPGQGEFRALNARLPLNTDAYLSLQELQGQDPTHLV
Sequence of UniProt P14784 (chain, as listed by the source, chain 2 of 2): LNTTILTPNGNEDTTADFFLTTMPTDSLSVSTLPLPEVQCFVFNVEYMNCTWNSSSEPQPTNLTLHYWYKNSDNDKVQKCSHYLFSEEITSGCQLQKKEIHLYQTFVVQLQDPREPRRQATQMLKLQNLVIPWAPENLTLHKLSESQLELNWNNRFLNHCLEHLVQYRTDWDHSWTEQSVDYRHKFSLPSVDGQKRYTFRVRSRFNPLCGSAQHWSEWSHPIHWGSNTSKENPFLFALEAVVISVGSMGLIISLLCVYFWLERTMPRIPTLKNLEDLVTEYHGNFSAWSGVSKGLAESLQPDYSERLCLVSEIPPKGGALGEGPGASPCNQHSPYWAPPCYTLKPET

Sequence of UniProt P01589 (P01589 22-272, chain 1 of 3): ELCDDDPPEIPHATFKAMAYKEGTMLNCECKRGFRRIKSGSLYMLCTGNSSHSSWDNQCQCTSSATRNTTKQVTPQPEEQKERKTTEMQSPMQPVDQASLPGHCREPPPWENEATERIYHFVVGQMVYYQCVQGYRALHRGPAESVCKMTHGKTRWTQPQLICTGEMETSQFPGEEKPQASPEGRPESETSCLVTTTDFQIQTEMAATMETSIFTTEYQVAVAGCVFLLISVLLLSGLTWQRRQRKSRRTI
Sequence of UniProt P01589 (chain, as listed by the source, chain 2 of 3): as the sequence (P14784 27-551, chain 1 of 2) above
Sequence of UniProt P01589 (chain, as listed by the source, chain 3 of 3): as the sequence (chain, as listed by the source, chain 2 of 2) above

B1: 1H3-hIgG1-L6-hIL-2 (I92D/Y45W) (protein)
heavy: EVQLVESGGGLVQPGRSLKLSCAVSGFTFSDYAMAWVRQAPKKGLEWVATISYDGSRTYYRDSVKGRFTISRDNAKITLYLQMDSLRSEDTATYYCARHGSGYFDYWGQGVMVTVSS[not shown - about 450 residues with a human IgG1 Fc and changes]
light: DTVLTQSPALAVSPGERVTISCRASESVRTGVHWYQQKPGQQPKLLIYGASNLESGVPARFSGSGSGTDFTLTIDPVEADDTATYFCQQSWNDPFTFGSGTKLEIKRTVAAPSVFIFPPSDEQLKSGTASVVCLLNNFYPREAKVQWKVDNALQSGNSQESVTEQDSKDSTYSLSSTLTLSKADYEKHKVYACEVTHQGLSSPVTKSFNRGEC
The molecule B1 registered a Fold change from hIL-2 (NK-92), pSTAT5 fixed conc. in assay [1] of 27 fold. Besides, in assay [2], the Fold change from hIL-2 (TF1 + IL-2Rβ), pSTAT5 fixed conc. stood at 4 fold.

B2: 1H3-hIgG1-L6-hIL-2 (R38E/D84F) (protein)
heavy: EVQLVESGGGLVQPGRSLKLSCAVSGFTFSDYAMAWVRQAPKKGLEWVATISYDGSRTYYRDSVKGRFTISRDNAKITLYLQMDSLRSEDTATYYCARHGSGYFDYWGQGVMVTVSS[not shown - about 450 residues with a human IgG1 Fc and changes]
light: B1 light
In assay [1], B2 showed a Fold change from hIL-2 (NK-92), pSTAT5 fixed conc. of 20 fold. In addition, in assay [2], the Fold change from hIL-2 (TF1 + IL-2Rβ), pSTAT5 fixed conc. was determined as 2 fold.

B3: 1H3-hIgG1-L6-hIL-2 (R38E/I92N) (protein)
heavy: EVQLVESGGGLVQPGRSLKLSCAVSGFTFSDYAMAWVRQAPKKGLEWVATISYDGSRTYYRDSVKGRFTISRDNAKITLYLQMDSLRSEDTATYYCARHGSGYFDYWGQGVMVTVSS[not shown - about 450 residues with a human IgG1 Fc and changes]
light: B1 light
With B3, the Fold change from hIL-2 (NK-92), pSTAT5 fixed conc. in assay [1] stood at 22 fold. Besides, the Fold change from hIL-2 (TF1 + IL-2Rβ), pSTAT5 fixed conc. in assay [2] was 1 fold.

B4: 1H3-hIgG1-L6-hIL-2 (R38E/D84Q) (protein)
heavy: EVQLVESGGGLVQPGRSLKLSCAVSGFTFSDYAMAWVRQAPKKGLEWVATISYDGSRTYYRDSVKGRFTISRDNAKITLYLQMDSLRSEDTATYYCARHGSGYFDYWGQGVMVTVSS[not shown - about 450 residues with a human IgG1 Fc and changes]
light: B1 light
The molecule B4 returned a Fold change from hIL-2 (NK-92), pSTAT5 fixed conc. in assay [1] of 18 fold. The Fold change from hIL-2 (TF1 + IL-2Rβ), pSTAT5 fixed conc. in assay [2] stood at 1 fold.

B5: 1H3-hIgG1-L6-hIL-2 (R38E/D84L) (protein)
heavy: EVQLVESGGGLVQPGRSLKLSCAVSGFTFSDYAMAWVRQAPKKGLEWVATISYDGSRTYYRDSVKGRFTISRDNAKITLYLQMDSLRSEDTATYYCARHGSGYFDYWGQGVMVTVSS[not shown - about 450 residues with a human IgG1 Fc and changes]
light: B1 light
As to B5, the Fold change from hIL-2 (NK-92), pSTAT5 fixed conc. in assay [1] is 19 fold. Further, in assay [2], the Fold change from hIL-2 (TF1 + IL-2Rβ), pSTAT5 fixed conc. amounted to 1 fold.

B6: 1H3-hIgG1-L6-hIL-2 (R38E/D84W) (protein)
heavy: EVQLVESGGGLVQPGRSLKLSCAVSGFTFSDYAMAWVRQAPKKGLEWVATISYDGSRTYYRDSVKGRFTISRDNAKITLYLQMDSLRSEDTATYYCARHGSGYFDYWGQGVMVTVSS[not shown - about 450 residues with a human IgG1 Fc and changes]
light: B1 light
In assay [1], B6 yielded a Fold change from hIL-2 (NK-92), pSTAT5 fixed conc. of 21 fold. Further, the Fold change from hIL-2 (TF1 + IL-2Rβ), pSTAT5 fixed conc. in assay [2] was found to be 1 fold.

B7: 1H3-hIgG1-L6-hIL-2 (R38E/D84A) (protein)
heavy: EVQLVESGGGLVQPGRSLKLSCAVSGFTFSDYAMAWVRQAPKKGLEWVATISYDGSRTYYRDSVKGRFTISRDNAKITLYLQMDSLRSEDTATYYCARHGSGYFDYWGQGVMVTVSS[not shown - about 450 residues with a human IgG1 Fc and changes]
light: B1 light
With B7, the Fold change from hIL-2 (NK-92), pSTAT5 fixed conc. in assay [1] turned out to be 18 fold. The Fold change from hIL-2 (TF1 + IL-2Rβ), pSTAT5 fixed conc. in assay [2] is 1 fold.

B8: 1H3-hIgG1-L6-hIL-2 (R38E/D84G) (protein)
heavy: EVQLVESGGGLVQPGRSLKLSCAVSGFTFSDYAMAWVRQAPKKGLEWVATISYDGSRTYYRDSVKGRFTISRDNAKITLYLQMDSLRSEDTATYYCARHGSGYFDYWGQGVMVTVSS[not shown - about 450 residues with a human IgG1 Fc and changes]
light: B1 light
For the molecule B8, the Fold change from hIL-2 (NK-92), pSTAT5 fixed conc. in assay [1] worked out at 18 fold. Besides, the Fold change from hIL-2 (TF1 + IL-2Rβ), pSTAT5 fixed conc. in assay [2] is 1 fold.

B9: 1H3-hIgG1-L6-hIL-2 (R38E/I92R) (protein)
heavy: EVQLVESGGGLVQPGRSLKLSCAVSGFTFSDYAMAWVRQAPKKGLEWVATISYDGSRTYYRDSVKGRFTISRDNAKITLYLQMDSLRSEDTATYYCARHGSGYFDYWGQGVMVTVSS[not shown - about 450 residues with a human IgG1 Fc and changes]
light: B1 light
In assay [1], B9 returned a Fold change from hIL-2 (NK-92), pSTAT5 fixed conc. of 22 fold. The Fold change from hIL-2 (TF1 + IL-2Rβ), pSTAT5 fixed conc. in assay [2] turned out to be 2 fold.

B10: 1H3-hIgG1-L6-hIL-2 (R38E/D84P) (protein)
heavy: EVQLVESGGGLVQPGRSLKLSCAVSGFTFSDYAMAWVRQAPKKGLEWVATISYDGSRTYYRDSVKGRFTISRDNAKITLYLQMDSLRSEDTATYYCARHGSGYFDYWGQGVMVTVSS[not shown - about 450 residues with a human IgG1 Fc and changes]
light: B1 light
With B10, in assay [1], the Fold change from hIL-2 (NK-92), pSTAT5 fixed conc. was 20 fold. Further, in assay [2], the Fold change from hIL-2 (TF1 + IL-2Rβ), pSTAT5 fixed conc. is 1 fold.

B11: 1H3-hIgG1-L6-hIL-2 (R38E/D84Y) (protein)
heavy: EVQLVESGGGLVQPGRSLKLSCAVSGFTFSDYAMAWVRQAPKKGLEWVATISYDGSRTYYRDSVKGRFTISRDNAKITLYLQMDSLRSEDTATYYCARHGSGYFDYWGQGVMVTVSS[not shown - about 450 residues with a human IgG1 Fc and changes]
light: B1 light
As to B11, the Fold change from hIL-2 (NK-92), pSTAT5 fixed conc. in assay [1] was 21 fold. For the same molecule, the Fold change from hIL-2 (TF1 + IL-2Rβ), pSTAT5 fixed conc. in assay [2] was 1 fold.

B12: 1H3-hIgG1-L6-hIL-2 (I92D/Y45V) (protein)
heavy: EVQLVESGGGLVQPGRSLKLSCAVSGFTFSDYAMAWVRQAPKKGLEWVATISYDGSRTYYRDSVKGRFTISRDNAKITLYLQMDSLRSEDTATYYCARHGSGYFDYWGQGVMVTVSS[not shown - about 450 residues with a human IgG1 Fc and changes]
light: B1 light
The molecule B12 yielded a Fold change from hIL-2 (NK-92), pSTAT5 fixed conc. in assay [1] of 28 fold. Besides, in assay [2], the Fold change from hIL-2 (TF1 + IL-2Rβ), pSTAT5 fixed conc. turned out to be 5 fold.

B13: 1H3-hIgG1-L6-hIL-2 (R38E/D84H) (protein)
heavy: EVQLVESGGGLVQPGRSLKLSCAVSGFTFSDYAMAWVRQAPKKGLEWVATISYDGSRTYYRDSVKGRFTISRDNAKITLYLQMDSLRSEDTATYYCARHGSGYFDYWGQGVMVTVSS[not shown - about 450 residues with a human IgG1 Fc and changes]
light: B1 light
In turn, B13 returned a Fold change from hIL-2 (NK-92), pSTAT5 fixed conc. in assay [1] of 19 fold. In addition, the Fold change from hIL-2 (TF1 + IL-2Rβ), pSTAT5 fixed conc. in assay [2] stood at 2 fold.

B14: 1H3-hIgG1-L6-hIL-2 (R38E/I92S) (protein)
heavy: EVQLVESGGGLVQPGRSLKLSCAVSGFTFSDYAMAWVRQAPKKGLEWVATISYDGSRTYYRDSVKGRFTISRDNAKITLYLQMDSLRSEDTATYYCARHGSGYFDYWGQGVMVTVSS[not shown - about 450 residues with a human IgG1 Fc and changes]
light: B1 light
Regarding B14, in assay [1], the Fold change from hIL-2 (NK-92), pSTAT5 fixed conc. was 22 fold. For the same molecule, the Fold change from hIL-2 (TF1 + IL-2Rβ), pSTAT5 fixed conc. in assay [2] amounted to 2 fold.

B15: 1H3-hIgG1-L6-hIL-2 (R38E/I92E) (protein)
heavy: EVQLVESGGGLVQPGRSLKLSCAVSGFTFSDYAMAWVRQAPKKGLEWVATISYDGSRTYYRDSVKGRFTISRDNAKITLYLQMDSLRSEDTATYYCARHGSGYFDYWGQGVMVTVSS[not shown - about 450 residues with a human IgG1 Fc and changes]
light: B1 light
For B15, in assay [1], the Fold change from hIL-2 (NK-92), pSTAT5 fixed conc. stood at 22 fold. Moreover, the Fold change from hIL-2 (TF1 + IL-2Rβ), pSTAT5 fixed conc. in assay [2] was 2 fold.

B16: 1H3-hIgG1-L6-hIL-2 (R38E/I92Q) (protein)
heavy: EVQLVESGGGLVQPGRSLKLSCAVSGFTFSDYAMAWVRQAPKKGLEWVATISYDGSRTYYRDSVKGRFTISRDNAKITLYLQMDSLRSEDTATYYCARHGSGYFDYWGQGVMVTVSS[not shown - about 450 residues with a human IgG1 Fc and changes]
light: B1 light
The molecule B16 gave a Fold change from hIL-2 (NK-92), pSTAT5 fixed conc. in assay [1] of 22 fold. Moreover, the Fold change from hIL-2 (TF1 + IL-2Rβ), pSTAT5 fixed conc. in assay [2] turned out to be 1 fold.

The values are drawn from patent US20240076343A1.
